From PubChem BioAssay AID485281 (National Center for Advancing Translational Sciences (NCATS), 2010)
Hit rate of the full screen: of about 350,000 compounds, about 260 (0.074%) were called active. The shares of active, inactive and inconclusive entries below differ from those in the screen. The call rests on the fitted dose curve; in most records, active means well fitted inhibition curve with a large enough effect; inconclusive means small, poorly fitted or top-dose-only effect; inactive means no such curve, though single readings can be large or run the other way. A potency beside an inconclusive call is a rough fit, not a confirmed value.

biological target: Ferritin light chain (Equus caballus) (UniProt P02791); assay: qHTS Assay for Identification of Novel General Anesthetics; details: apoferritin/1-aminoanthracene competitive binding, fluorescence; activity change, negative = displacement: at 77.5 µM (top of the series); further: nearly all actives have a fitted effect of over 20% in size
Sequence of UniProt P02791 (P02791 whole entry, looked up): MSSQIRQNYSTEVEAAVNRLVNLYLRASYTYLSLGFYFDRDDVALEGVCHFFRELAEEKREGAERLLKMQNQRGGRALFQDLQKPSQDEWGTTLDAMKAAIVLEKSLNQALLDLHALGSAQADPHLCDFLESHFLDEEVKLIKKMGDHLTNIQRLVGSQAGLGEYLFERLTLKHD
Procedure, shortened: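 Steps: apoferritin (10 uM) was premixed with half-saturated 1-AMA in PBS, compounds were pin-transferred, plates stood 10 min at room temperature, fluorescence was read at 380/535 nm, and curves were fitted with a Hill equation.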
On the % scale 0 is the no-effect control and ±100 the full control effect; potency means the concentration at half of the fitted maximal effect; tags describe the fitted curve by direction and shape.

| SMILES | Potency | activity change, negative = displacement |
| --- | --- | --- |
| O=S(=O)(NCc1ccccc1Cl)c1ccc(-n2cccn2)cc1 | inconclusive: 35.5 µM [inhibitor, single point] | – |
| CCn1c2c(c(=O)n3ncc(C(=O)Nc4cc(Cl)ccc4OC)c13)CN(Cc1ccc(OC)cc1)CC2 | – | inactive: -13.5% |
| CC1CN(C(=O)NCc2ccccc2)c2cc(Cl)ccc2O1 (configuration not stated) | inconclusive: 5.62 µM [inhibitor, partial curve] | – |
| N#Cc1c(Cl)nc(SCc2ccccc2)nc1-c1ccccc1 | inconclusive: 35.5 µM [inhibitor, partial curve] | – |
| CCOC(=O)C1CCN(C(=O)CCc2nc3ccccc3[nH]2)CC1 | – | inactive: 6.57% |
| CC(C)CC(=O)Nc1ccc2c(c1)oc1ccccc12 | – | inactive: -20.5% |
| CC1CCCCN1CCCNC(=O)c1cc(Sc2cccc(Cl)c2)nc2ccccc12 (configuration not stated) | – | inactive: 0.401% |
| COC(=O)C1=NN(c2ccc(C)cc2)C2(S1)SC(C(C)=O)=C(C)N2c1ccccc1 (configuration not stated) | – | inactive: -9.45% |
| Cn1c(N)c(C(=O)COC(=O)CCCc2c[nH]c3ccccc23)c(=O)n(C)c1=O | inconclusive: 56.2 µM [inhibitor, single point] | – |
| COc1ccc(-c2oc3ccccc3c2C(=O)OCc2ccccc2)cc1 | – | inactive: 6.65% |
| CC(C)=CCC/C(C)=C/CC/C(C)=C/CO | inconclusive: 25.1 µM [inhibitor, partial curve] | – |
| Cc1nn2c(-c3ccccc3)ccnc2c1-c1ccccc1 | inconclusive: 3.55 µM [inhibitor, partial curve] | – |
| CCOc1ccnc2c1c(=O)n(Cc1cc(OC)cc(OC)c1)c(=O)n2C | inconclusive: 11.2 µM [inhibitor, single point] | – |
| CCCCCCCCNC(=O)CCNC(=O)c1ccc(C(C)(C)C)cc1 | inconclusive: 5.62 µM [inhibitor, full curve, poor fit] | – |
| Cn1c(=O)n(C)c2cc([N+](=O)[O-])c(N3CCN(C(=O)c4ccccc4Cl)CC3)cc21 | inconclusive: 20 µM [inhibitor, partial curve] | – |
| O=C1c2ccccc2C(=O)N1OCc1cccc(Cl)c1 | inconclusive: 35.5 µM [inhibitor, single point] | – |
| O=C(OCCNc1nc(-c2ccccc2)nc2ccccc12)c1cccnc1 | – | inactive: -18.7% |
| CC(C)(C)C1CCC(=O)N(CCOc2ccccc2)CC1 (configuration not stated) | inconclusive: 31.6 µM [inhibitor, partial curve, poor fit] | – |
| Cc1nc2ccccc2c(=O)n1NC(=O)Nc1ccccc1 | – | inactive: -1.08% |
| C=CCc1cccc(/C=N/NC(=O)C(C)Nc2cccc(C)c2)c1O (configuration not stated) | inconclusive: 6.31 µM [inhibitor, full curve] | – |
| Nn1c(SCc2nc3ccccc3[nH]2)nnc1C1CCCCC1 | inconclusive: 39.8 µM [inhibitor, single point] | – |
| CCOC(=O)c1ccc2c(c1)nc(SCC(=O)c1cc3ccccc3o1)n2CC | inconclusive: 14.1 µM [inhibitor, partial curve] | – |
| COc1ccc2cc3c(N)nn(C(=O)c4cccc(F)c4)c3nc2c1 | – | inactive: 0.894% |
| CC(C)(C)C(=O)COc1ccccc1[N+](=O)[O-] | inconclusive: 28.2 µM [inhibitor, partial curve] | – |

| SMILES | Potency | activity change, negative = displacement |
| --- | --- | --- |
| CCCCc1ccc(NC(=S)NCC2CCCO2)cc1 (configuration not stated) | inconclusive: 25.1 µM [inhibitor, partial curve] | – |
| Cc1nn(-c2ccccc2)c(Cl)c1/C=N/NC(=O)c1ccccc1F | inconclusive: 56.2 µM [inhibitor, single point] | – |
| O=C(COCc1cc(-c2cccs2)on1)NC1CCCCC1 | – | inactive: 4.21% |
| Cc1ccc(CN2[C@@H](CC3CCCCC3)COCCS2(=O)=O)cc1 | – | inactive: -2.71% |
| COc1ccc(S(=O)(=O)NCCSc2nnnn2-c2ccccc2)cc1OC | – | inactive: 41.7% |
| CCN(Cc1ccccc1)C(=O)c1cc(-c2ccccc2)n[nH]1 | inconclusive: 39.8 µM [inhibitor, single point] | – |
| COc1ccc2c(c1)c(C(=O)CNc1nc(C)cs1)c(C)n2C | – | inactive: -19.4% |
| O=C(NCc1cccc(Cl)c1)N1CCN(S(=O)(=O)c2ccccc2F)CC1 | – | inactive: -11.2% |
| Cc1cccc(/C=N/NC(=O)c2ccc(NC(=O)c3ccccc3C)cc2)n1 | inconclusive: 44.7 µM [inhibitor, single point] | – |
| COc1ccc(-c2oc3ccccc3c(=O)c2OC(C)=O)cc1 | – | inactive: 3.09% |
| CCCn1c(C2CCCN2c2nc(C)cs2)nc2cc(Cl)c(Cl)cc21 (configuration not stated) | inconclusive: 17.8 µM [inhibitor, partial curve] | – |
| COc1cccc(C2C(C(=O)Nc3ccc(Cl)cc3)=C(C)Nc3nc4ccccc4n32)c1OC (configuration not stated) | inconclusive: 2 µM [inhibitor, full curve, poor fit] | – |
| Cc1cccc(NC(=O)C(=O)NCc2ccc3c(c2)OCO3)c1C | inconclusive: 3.16 µM [inhibitor, full curve] | – |
| CC1=Nc2ccccc2N=C(N)C1c1ccccc1 (configuration not stated) | inconclusive: 31.6 µM [inhibitor, single point] | – |
| CN(C)c1ccc(C(=O)OCC(=O)NC2CCCCCC2)cc1 | inconclusive: 3.55 µM [inhibitor, full curve] | – |
| O=C(/C=C/c1cccc(Cl)c1)NCc1cccs1 | – | inactive: -17.6% |
| NC(=NCCCCCCN=C(N)/N=C(\N)Nc1ccc(Cl)cc1)/N=C(\N)Nc1ccc(Cl)cc1 | inconclusive: 39.8 µM [inhibitor, partial curve] | – |
| CC(C)c1ccc(Nc2nnc(SCC(=O)c3nnc(-c4ccccc4)o3)s2)cc1 | inconclusive: 35.5 µM [inhibitor, single point] | – |
| O=C(c1ccccc1Sc1ccccc1[N+](=O)[O-])N1CCCCC1 | inconclusive: 39.8 µM [inhibitor, partial curve] | – |
| Nc1cc(Cl)ccc1Oc1ccccc1 | inconclusive: 22.4 µM [inhibitor, partial curve] | – |
| CCCCNC(=O)CN1C(=O)c2cccnc2Sc2ccccc21 | inconclusive: 25.1 µM [inhibitor, partial curve] | – |
| O=[N+]([O-])c1ccc(Sc2nccn2Cc2ccccc2)c([N+](=O)[O-])c1 | – | inactive: -13.1% |
| Cc1cc(C)nc(SCc2c(F)cccc2Cl)n1 | inconclusive: 15.8 µM [inhibitor, partial curve] | – |
| Cc1oc2ccc(NS(=O)(=O)c3ccc(C(C)(C)C)cc3)cc2c1C(=O)Nc1ccccc1 | inconclusive: 4.47 µM [inhibitor, full curve, poor fit] | – |

| SMILES | Potency | activity change, negative = displacement |
| --- | --- | --- |
| COc1ccc(OC)c(/C(O)=C/C(=O)C(=O)Nc2cc(C)cc(C)c2)c1 | inconclusive: 35.5 µM [inhibitor, partial curve] | – |
| Cc1cccc(NC(=O)CC2SC(=O)N(c3ccccc3)C2=O)c1 (configuration not stated) | inconclusive: 39.8 µM [inhibitor, single point] | – |
| CCc1ccc(OCC(=O)c2c(O)c3ccccc3oc2=O)cc1 | – | inactive: -9.21% |
| CCc1nc2oc3ccc(C)cc3c(=O)c2cc1C(=O)OC | – | inactive: -5.85% |
| O=C(COC(=O)CCCc1c[nH]c2ccccc12)Nc1ccc2c(c1)OCO2 | inconclusive: 28.2 µM [inhibitor, partial curve] | – |
| COc1ccc(NC(=O)CSCC(=O)Nc2ccc(S(=O)(=O)N3CCCC3)cc2)cc1 | inconclusive: 35.5 µM [inhibitor, single point] | – |
| CCn1cc(/C=C(\NC(=O)c2ccc(OC)c(OC)c2)C(=O)NCCCN2CCOCC2)c2ccccc21 | – | inactive: -13.7% |
| COc1cc(SC)ccc1C(=O)N1CCc2ccccc21 | inconclusive: 39.8 µM [inhibitor, partial curve] | – |
| CCOc1ccc(OCC)c(NC(=O)C2C3C=CC(O3)C2C(=O)NCc2ccco2)c1 (configuration not stated) | inconclusive: 39.8 µM [inhibitor, single point] | – |
| O=C(Cc1ccc(S(=O)(=O)N2CCOCC2)s1)Nc1ccc2c(c1)CCC2 | inconclusive: 25.1 µM [inhibitor, partial curve, poor fit] | – |
| NS(=O)(=O)c1ccc(N=Nc2c(O)ccc3ccccc23)cc1 | – | inactive: -13.9% |
| O=C(CN1CCN(Cc2ccccc2Cl)C1=O)NC1CCCCCCC1 | inconclusive: 39.8 µM [inhibitor, partial curve] | – |
| Cn1ncc(Br)c1C(=O)NC1C2CC3CC(C2)CC1C3 (configuration not stated) | inconclusive: 28.2 µM [inhibitor, partial curve] | – |
| C=CCNC(=O)/C(C#N)=C/c1cc(Br)ccc1OC | – | inactive: -12.6% |
| CC(=O)Nc1ccc(S(=O)(=O)NC2C3(C)CCC(C3)C2(C)C)cc1 (configuration not stated) | – | inactive: -7.94% |
| O=c1[nH]c(SCc2ccc(F)cc2Cl)nc2ccccc12 | inconclusive: 3.55 µM [inhibitor, full curve] | – |
| Cn1c(SCC(=O)N/N=C/C=C\c2ccccc2[N+](=O)[O-])nc2ccccc21 | inconclusive: 25.1 µM [inhibitor, partial curve] | – |
| CCCCOC(=O)c1ccc(OC(=O)c2cccnc2)cc1 | inconclusive: 25.1 µM [inhibitor, partial curve] | – |
| O=C(Cn1nc(-c2ccco2)ccc1=O)Nc1ccc(Br)cc1 | inconclusive: 39.8 µM [inhibitor, single point] | – |
| O=[N+]([O-])c1cc(S(=O)(=O)NC2=NCCCCC2)ccc1NCC1CCCCC1 | inconclusive: 25.1 µM [inhibitor, partial curve] | – |
| Cc1ccc(N/C(C(Cl)=C(Cl)Cl)=C(/Cl)[N+](=O)[O-])c(C)c1 | inconclusive: 31.6 µM [inhibitor, single point] | – |
| COCCCNC(=O)Cn1nc(-c2ccc(C)cc2)ccc1=O | inconclusive: 11.2 µM [inhibitor, partial curve] | – |
| COc1ccc(CNC2CCCc3ccccc32)c(OC)c1 (configuration not stated) | – | inactive: -16% |
| CC1CCN(C(=O)Cn2nnc(-c3ccc([N+](=O)[O-])cc3)n2)CC1 | inconclusive: 28.2 µM [inhibitor, partial curve] | – |
